From PubChem BioAssay AID1030 (National Center for Advancing Translational Sciences (NCATS), 2008)
Hit rate of the full screen: of about 220,000 compounds, about 16,000 (7.3%) were called active. Inconclusive means that the source gave no clear call. Such entries were picked first, then a sample of the others. Calls come from the whole dose curve; as a rule, active = well fitted inhibition curve with a large enough effect (not every such curve was filed as active); inconclusive = small, poorly fitted or top-dose-only effect, or another doubt; inactive = no such curve, though single readings can be large or run the other way. No potency is given beside an inconclusive call; the fits are too rough.

Each molecule was assayed against Aldehyde dehydrogenase 1A1 (Homo sapiens) (UniProt P00352) (assay: qHTS Assay for Inhibitors of Aldehyde Dehydrogenase 1 (ALDH1A1)). Settings: Purified ALDH1A1, NADH fluorescence, propionaldehyde substrate; series mostly up to 75.3 µM.
Potency is the fitted concentration of half-maximal effect; tags give direction and shape of the fitted curve.

Chain of UniProt P00352 (P00352 whole entry, looked up): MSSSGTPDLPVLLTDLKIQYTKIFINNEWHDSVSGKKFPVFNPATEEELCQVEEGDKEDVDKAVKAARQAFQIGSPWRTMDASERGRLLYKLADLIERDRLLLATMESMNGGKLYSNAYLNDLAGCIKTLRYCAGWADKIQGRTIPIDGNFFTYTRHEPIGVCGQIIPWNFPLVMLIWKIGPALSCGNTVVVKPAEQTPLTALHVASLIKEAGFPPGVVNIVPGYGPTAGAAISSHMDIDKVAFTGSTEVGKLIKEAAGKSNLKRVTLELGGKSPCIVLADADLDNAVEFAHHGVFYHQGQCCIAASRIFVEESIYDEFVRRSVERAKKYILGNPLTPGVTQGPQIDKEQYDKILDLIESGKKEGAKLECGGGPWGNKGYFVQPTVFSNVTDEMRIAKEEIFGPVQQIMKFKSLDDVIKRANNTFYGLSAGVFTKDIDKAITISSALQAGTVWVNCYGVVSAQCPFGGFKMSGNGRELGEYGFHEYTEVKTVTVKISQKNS

Row | SMILES | Potency
1 | COc1cc(/C=N/NC(=O)c2cc(-c3ccccc3)n[nH]2)ccc1O | inconclusive [inhibitor, partial curve]
2 | COc1ccccc1NC(=O)c1ccc(-c2ccccc2[N+](=O)[O-])o1 | active: 7.94 µM
3 | Cc1nnc(SCC2=C(C(=O)O)N3C(=O)C(NC(=O)Cn4cnnn4)[C@@H]3SC2)s1 (stereo partly specified) | inactive
4 | CCOC(=O)c1cc(NC(=O)c2c(C)noc2C)cc(C(=O)OCC)c1 | inconclusive [inhibitor, single point]
5 | CCOc1ccc(-c2nc(C#N)c(N3CCOCC3)o2)cc1 | inconclusive [inhibitor, partial curve]
6 | Cc1ccc2cc(CN(Cc3ccco3)C(=O)c3cccs3)c(=O)[nH]c2c1 | inconclusive [inhibitor, single point]
7 | CN(C)CCCNC(=O)c1cc(C(=O)c2ccc(F)cc2)c[nH]1 | inactive
8 | Cc1ccc(OCC(=O)Nc2ccccc2Sc2ccccc2)c([N+](=O)[O-])n1 | inactive
9 | Cc1cccn2cc(-c3ccc(Cl)cc3)nc12 | inconclusive [inhibitor, partial curve]
10 | COc1ccc(C(=O)Nc2ccc([N+](=O)[O-])cn2)c(OC)c1 | inactive
11 | CCNc1nc(NCC)nc(C(=O)OCCO)n1 | inconclusive [inhibitor, full curve, poor fit]
12 | COc1ccc(S(=O)(=O)NNC(=O)c2cccs2)cc1 | inconclusive [inhibitor, single point]
13 | CCCCCCCC1CC(=O)C=C(C)C1C(=O)OCC (stereo unspecified) | inconclusive [inhibitor, single point]
14 | COCCNC(=O)c1cc2sccc2n1C | inactive
15 | COc1ccc(OC)c(NC(=O)COC(=O)c2cc3c(s2)CCC3)c1 | inconclusive [inhibitor, single point]
16 | O=C(N/N=C/C1C(c2ccccc2)C1(Cl)Cl)c1cccc(Br)c1 (stereo unspecified) | active: 11.2 µM
17 | Nc1nnc(SCCN2C(=O)c3ccccc3S2(=O)=O)s1 | inconclusive [inhibitor, partial curve]
18 | Cc1ccccc1Cn1c(=O)sc2ccccc2c1=O | inconclusive [inhibitor, single point]
19 | Cc1nc2cnc(N3CCNCC3)nc2n(C2CC2)c1=O | inconclusive [inhibitor, partial curve]
20 | Cc1nc(N2CCN(C(=O)CCC(=O)O)CC2)c2c(C)c(C)sc2n1 | inactive
21 | CCOC(=O)c1cc(-c2cc3ccccc3o2)nc2c1c(=O)[nH]c(=O)n2CCOC | inconclusive [inhibitor, partial curve]
22 | CC(=O)c1c(C)nc(-c2ccc(Cl)cc2)nc1N | active: 22.4 µM
23 | C=CCn1c(=S)[nH]c2sc3c(c2c1=O)CCC3 | active: 11.2 µM
24 | Cc1ccc2cc(CCNS(=O)(=O)c3ccc(F)cc3)c(=O)[nH]c2c1C | inactive

Row | SMILES | Potency
25 | CC(NC(=O)COC(=O)c1ccccc1Nc1ccccc1)c1ccccc1 (stereo unspecified) | inconclusive [inhibitor, single point]
26 | Cc1ccc2nc(N3CCN(S(=O)(=O)c4ccc5c(c4)OCCO5)CC3)c(C#N)cc2c1 | inconclusive [inhibitor, single point]
27 | CCOC(=O)C1CCN(CC(=O)Nc2c(C(=O)OC)[nH]c3ccccc23)CC1 | inactive
28 | CCc1c(C)sc(NC(=O)c2cc(-c3ccc(O)cc3)on2)c1C#N | inconclusive [inhibitor, single point]
29 | COc1ccc(Cl)cc1NC(=O)C12CCC(C)(C(=O)O1)C2(C)C (stereo unspecified) | inconclusive [inhibitor, single point]
30 | Cc1c(Cl)cnc(NC(=O)CSc2nncs2)c1Cl | inactive
31 | CC(=O)N(c1ccccc1)C1SC(=O)N(c2ccccc2)C1=O (stereo unspecified) | active: 0.631 µM
32 | CC(C)(C)C1CCc2c(sc(NC(=O)c3ccncc3)c2C(N)=O)C1 (stereo unspecified) | inactive
33 | O=C(NNC(=S)Nc1ccccc1)NNC(=S)Nc1ccccc1 | inconclusive [inhibitor, single point]
34 | CC(=O)Nc1c2c3c(cccc3n(C)c1=O)C(=O)c1ccccc1-2 | inconclusive [inhibitor, partial curve, poor fit]
35 | CCOc1cccc(/C=C/C(=O)O)c1 | inconclusive [inhibitor, single point]
36 | CCc1ccc2nc3c(c(C(=O)O)c2c1)CCC3 | inconclusive [inhibitor, single point]
37 | COc1ccc(-c2nc3c(c4c2C[C@H](c2ccccc2)OC4)CN(C(=O)c2cccnc2)CC3)c(C)c1 | active: 0.355 µM
38 | Cc1cc(C(=O)Nc2c(C)nn(Cc3c(Cl)cccc3Cl)c2C)no1 | inactive
39 | O=C(O)/C(=C\c1ccc(-c2ccc(F)cc2)o1)c1ccccc1 | inconclusive [inhibitor, single point]
40 | Cc1cccc2cc(C(c3nnnn3CC3CCCO3)N3CCCC4(CCCCC4)C3)c(=O)[nH]c12 (stereo unspecified) | inconclusive [inhibitor, partial curve]
41 | CN(C)CCCN(Cc1cc2cc3c(cc2[nH]c1=O)OCO3)C(=S)Nc1ccccc1 | inconclusive [inhibitor, single point]
42 | CCN(CCNC(=O)CN(C)S(=O)(=O)c1cccc2nsnc12)c1ccccc1 | inconclusive [inhibitor, single point]
43 | O=C(O)COc1ccc(OCCNC[C@H](O)COc2ccccc2)cc1 | inactive
44 | CCCn1c(-c2cccs2)nc2nc3ccccc3nc21 | inconclusive [inhibitor, partial curve]
45 | Cc1cc[n+]2c3c(cccc13)CCC2 | inconclusive [inhibitor, single point]
46 | O=C(COC(=O)[C@H](Cc1c[nH]c2ccccc12)NC(=O)c1cccs1)NCc1ccccc1 | inactive
47 | O=C(CN(C(=O)c1ccccc1Cl)C1CCCCC1)Nc1ccc(Cl)c([N+](=O)[O-])c1 | inconclusive [inhibitor, single point]
48 | Cn1c(=O)c2c(nc(-n3ccnc3)n2Cc2ccccc2)n(C)c1=O | active: 10 µM

Row | SMILES | Potency
49 | CCOc1ccccc1OCC(=O)Nc1ccc(Cl)cc1Cl | inactive
50 | C/C(=N\NC(=O)C1(C)CC1(Br)Br)c1ccc(NC(=O)c2ccc(C)o2)cc1 (stereo unspecified) | inactive
51 | Cc1ccc(S(=O)(=O)N2CCCCC2)cc1NC(=O)C1CC(=O)N(Cc2ccccc2)C1 (stereo unspecified) | inconclusive [inhibitor, single point]
52 | CCc1ccc(Nc2ncc3c(n2)CC(c2ccc(OC)cc2)CC3=O)cc1 (stereo unspecified) | inconclusive [inhibitor, single point]
53 | O=C(O)CCc1ccc(-c2ccc(Br)cc2)n1Cc1ccco1 | inconclusive [inhibitor, single point]
54 | CN(C)c1ccc(NC(=O)C(=O)C2C(=O)Nc3ccccc32)cc1 (stereo unspecified) | inactive
55 | C[N+]1=C(/C=C/Nc2ccccc2Cl)C(C)(C)c2ccccc21 | inconclusive [inhibitor, single point]
56 | COc1ccc(N(CC(=O)NCc2ccc3c(c2)OCO3)S(=O)(=O)c2c(C)nn(C)c2C)cc1 | inactive
57 | N#Cc1cccc(NC(=O)N2CCC3(CC2)CCN(C(=O)c2cccc(F)c2)CC3)c1 | inactive
58 | CCSc1nnc(-c2ccccc2SC)o1 | inconclusive [inhibitor, single point]
59 | Cc1cc(/C=C2\SC(=O)N(CC(=O)Nc3ccccc3F)C2=O)c(C)n1C | inconclusive [inhibitor, single point]
60 | Cc1cccc(/C=C2\CCC(=C3SCCCS3)C2=O)c1 | active: 8.91 µM
61 | Cc1c(O)ccc(/C(Cc2ccc3ccccc3n2)=N\O)c1O | inconclusive [inhibitor, partial curve]
62 | CCCCCn1ccc(=N)cc1 | inconclusive [inhibitor, single point]
63 | CCOC(=O)c1ccc(NC2=CC(=O)CC(c3ccco3)C2)cc1 (stereo unspecified) | inconclusive [inhibitor, single point]
64 | O=C(CSc1nnc(-c2cccs2)n1-c1ccccc1)N1CCN(C(=O)c2ccco2)CC1 | inconclusive [inhibitor, single point]
65 | Cc1ccc(NC(=O)CSCC(=O)Nc2ccc(N3CCOCC3)c(Cl)c2)cc1 | inconclusive [inhibitor, single point]
66 | Cc1cc(-c2nc3ccccc3o2)c2ccccc2n1 | inconclusive [inhibitor, partial curve]
67 | C#CCOCCOCCOCCNc1nc(N2CCN(C(=O)[C@H](CCC(=O)O)n3cc(C(N)CC(C)C)nn3)CC2)nc(N2CCN(C(=O)[C@H](Cc3ccc(O)cc3)n3cc(C(N)CC(C)C)nn3)CC2)n1 (stereo partly specified) | inconclusive [inhibitor, single point]
68 | CCOC(=O)C1=C(N)n2c(s/c(=C/c3ccco3)c2=O)=C(C(=O)OC)C1c1ccco1 (stereo unspecified) | inconclusive [inhibitor, partial curve, poor fit]
69 | COc1ccc2[nH]c3nc(SC(C)C)nnc3c2c1 | inconclusive [inhibitor, full curve]
70 | Cc1ccccc1NC(=O)c1ccc(NC(=O)C2CC(=O)OC23CCCCC3)cc1 (stereo unspecified) | inconclusive [inhibitor, single point]
71 | O=C(C(=O)N1CCc2ccccc2C1)c1c[nH]c2ccccc12 | inactive
